Results on 121 sequences are retold here after the supplement of paper PMC10126150.

Values marked as one replicate rest on one cluster of the flow cell; about a third of the high ones do not repeat.

The test system of this data set is ATP. The data set is described as follows: switch fluorescence ratio, 500 uM ATP over buffer (Cy3 cluster intensity, sum of 5 cycles each) (fold (ratio)); higher = stronger signal-on switching upon ATP binding; sequences stand for … in TCGTCGGCAGCGTCAGATGTGTATAAGAGACAGTTTTTTTTTTTTTTTTTTTTTTTTT…TC. As to conditions: aptamer strand: ATP DNA aptamer (quencher-CACCTGGGGGAGTATTGCGGAGGAAGG + anchor), 100 nM annealed; ATP concentration: 500 uM; one replicate. The gist of the method:
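Imaging in selection buffer was followed by imaging after 15 min with 500 uM ATP at 22 °C, for Cy3-labelled switching-strand clusters annealed to 100 nM quencher-labelled ATP aptamer on a modified Illumina MiSeq flow-cell. Five of these buffer/ATP cycles ran, separated by NaOH stripping and re-annealing. The fluorescence ratio per cluster is summed target-cycle over summed buffer-cycle Cy3 intensity, averaged per switch-domain sequence; clusters outside 100-1000 RFU were removed.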
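Note: ATP exposure 15 min at 22 °C before imaging.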

In the case of CGTGACTCTC, the switch fluorescence ratio is 1.02.
Under AACGATGTGT stands 0.988; under AAGAAGGACC, 1.05; under AAAAAGGGCT, 1.03.
Under ACAGCGAAT stands 1.01.
Under GCCAGAGCTT stands 1.06; under GCTCGGAGTA, 1.
Take TTGTGTGTCG: the switch fluorescence ratio came to 1.02.
Next, GAATAGAGCA: 1.08.
Next, TATGGCTCTC: 0.971; ACAAGCTAAA: 1.02.
Under CTAATACGTC stands 1.09.
With CGGTAGCAA, the switch fluorescence ratio was determined as 4.26.
Next, TTATTGCAAT: 1.09.
On to ACAGATTGGG, for which the switch fluorescence ratio was 0.98.
Next, AAGGTAT: 0.988; GCTGGGCTG: 0.999; TTGTTGGGAG: 1.03.
Next, GACTGACACC: 1.27; TTGATAGGTT: 0.943.
Next, GATATGTCGC: 1.01; GACGGTACGG: 0.999.
As to AGGCTCGGAA, the switch fluorescence ratio amounted to 1.1.
In the case of ATGTTGGTC, the switch fluorescence ratio is 0.991.
Under GCTTAAGGGT stands 0.946.
Turning to ACCACCTGCA, the switch fluorescence ratio amounted to 1.19.
Next, CCTAATTAAT: 1.
Next, GCGCTTTTG: 0.998; AATCAATATT: 0.999; AAAGATATA: 0.942.
Under TACAGCAACA stands 1.14; under TCGGCCAGCT, 1.04.
For AGTCTGTGAA, the switch fluorescence ratio stood at 1.05.
Consider CGTCTTCCGT, for which the switch fluorescence ratio stood at 0.975.
On to AACCTATAAG, for which the switch fluorescence ratio came out at 0.982.
Turning to ACTTCTGTGT, the switch fluorescence ratio is 1.03.
Next, TCACCTATCT: 1.01; TGGGTCTCGA: 0.983.
Consider ATGACGATAA, for which the switch fluorescence ratio worked out at 1.03.
Under AAATGGAAG stands 1.01.
Next, ATTACTCTG: 1.09; TAGCCCGCGT: 1.04; AGAGGTCTTC: 0.982.
For GCTTCCCTCG, the switch fluorescence ratio was found to be 1.55.
Next, GATAAGGGAA: 1.
Under ATTTAATGT stands 1.01; under ACTTGCCTGG, 1.1.
Under ACAGTTGCCA stands 0.963.
AAGAAATTTA: the switch fluorescence ratio was 0.99.
For the sequence TTTGGCGTCG, the switch fluorescence ratio was 1.07.
Under GCTCACGACA stands 1.18; under CCAAGGATCA, 1.04; under CATGGACCTA, 1.04.
For the sequence ACAGAAGACC, the switch fluorescence ratio was found to be 1.03.
Under ATTCTCTGGA stands 0.957; under TGATGAGTTC, 1.01; under TGGCTGAGGG, 0.999.
Next, GCACGAGTAT: 1; GCCGCTGCTT: 1.04; ACAACTCGTA: 0.993.
Under GTGGTGTAGG stands 1.
On to ACCTCGTGCG, for which the switch fluorescence ratio stood at 0.982.
AAAGATATGC: the switch fluorescence ratio came out at 1.08.
On to TTTGTCAGT, for which the switch fluorescence ratio came to 1.04.
Next, CACTCTGAGA: 1; TAGAAGAGAT: 1.01; CTGCCCAATA: 3.33.
Under AGTTACGAGA stands 1.02; under GAGCGTCCGA, 1.01; under AAGTACGTGG, 1.15.
Under GGTCAACGAA stands 1.09.
With GCACCCCTGG, the switch fluorescence ratio is 1.35.
Under AGACCAAAG stands 1; under GGATAAGAGG, 1; under CATCAGAACT, 1.03.
Under GGAGTTCAGA stands 0.993; under TATGGCTCCG, 1.05.
Next, CTTTAACTTG: 1.06; GGGGTCGGC: 0.933.
Take TGAAGGCGT: the switch fluorescence ratio stood at 1.
For TCCAAGTTCC, the switch fluorescence ratio was 1.06.
Next, ATTTGTAAGG: 0.975; GAGCCTAGAT: 1.17; AGTGGGTGCG: 0.991.
Under TTCAGAACAT stands 1; under AGGATATCCG, 1.02; under AAGGATGGC, 1.02.
Next, TCGCAACGTT: 1.12; TACAGAT: 1.03; GCAAATGAAG: 1.01.
In the case of TCGTTGAGTA, the switch fluorescence ratio is 0.951.
As to TACTTAGCTC, the switch fluorescence ratio was 1.01.
Regarding TAGGAAGCCG, the switch fluorescence ratio came out at 0.994.
Under ATGTGCCAGC stands 1.01; under AAATGAGTCC, 0.992; under GGTTAGGTTA, 1.01.
Next, ACTGTGGTAG: 0.991.
Under ACACGCACGG stands 1.57.
Take ATCTCCAACG: the switch fluorescence ratio was 1.05.
Turning to TATATGGTAT, the switch fluorescence ratio is 1.06.
Turning to TTAGGGCCCG, the switch fluorescence ratio was 0.996.
As for TGACGTCCG, the switch fluorescence ratio was found to be 1.06.
Under TACAGCCTTA stands 1.03; under AAACGTCTAC, 1.2; under TAGCGGACCA, 1.04.
With TTGACAAGG, the switch fluorescence ratio worked out at 1.01.
For the sequence ACAAACTGGG, the switch fluorescence ratio turned out to be 0.979.
Take CCTTGGTAAC: the switch fluorescence ratio is 1.28.
Under CGAGTGGACC stands 0.946; under TGTTTCCGCG, 1.49.
As for AGGCCCAGAA, the switch fluorescence ratio worked out at 0.984.
Under GAGTTACTCG stands 1.04; under AAAAGACCCC, 1.14.
Under TGACCATTTA stands 0.988; under CAAGGTGGGA, 0.989; under TTTCGGTAC, 1.11.
Under GGGCCTCTGT stands 0.967; under TCTGATTAAT, 1.02.
TGCTGAAAAA: the switch fluorescence ratio stood at 0.974.
Regarding AGCGTGGAGT, the switch fluorescence ratio is 1.02.
In the case of TGTGTGCAGT, the switch fluorescence ratio is 0.976.
